# From ChEMBL document CHEMBL5308541, “MAIP: An Open-Source Tool to Enrich High-Throughput Screening Output and Identify Novel, Druglike Molecules with Antimalarial Activity” (ACS Med Chem Lett, 2023)
# Out of some 150,000 compounds screened, about 540 (0.36%) showed an effect of 50% or more. Some of the results follow.
# System: Plasmodium falciparum
# Test: Primary screen in NF54 nanoGlo assay, in single point, at 2uM, 72h; a lower Z score goes with more inhibition
# Type: functional, Erythrocyte
# Conditions: timepoint 72 hour
Structure (SMILES),% Inhibition,Z score
O=C(c1ccc2[nH]ccc2c1)N1CCC[C@H]1C1(O)CC1,-5%,0.99
Cc1cc(C)cc([C@@H](O)CNCc2ccc3c[nH]nc3c2)c1,3%,-0.57
Cc1cc(N2CCC(N3CCN(CCO)CC3)CC2)c2cc(F)ccc2n1,-12%,2.6
O=C(NC1CC2CCC(C1)N2Cc1ccccc1)N1CCC(N2CCNCC2)C1 (stereo unspecified),-16%,2.81
Cc1ccc(-c2cccc3c(C(=O)NCCCN4CCC(N5CCCCC5)CC4)cc(C)nc23)cc1,98%,-16.9
Fc1ccc(N2CC[C@H](CNc3ncnc4ccncc34)C2)cc1F,-5%,0.79
C[C@H]1CCCCN1CCC1CCN(C(=O)Cc2ccc3[nH]ncc3c2)CC1,-9%,1.33
O=C1NC(=O)C2(CCC(NC(=O)[C@@H]3COCCN3CC(F)F)CC2)N1 (stereo partly specified),-1%,0.23
N#Cc1ccc(NC2COCC2N2CCCC2)nc1 (stereo unspecified),-3%,0.66
CC(C)[C@H](CO)N(C)C(=O)c1ccc(-c2ccc(O)cc2F)cc1,-8%,1.34
CN1CCN(c2cc(N3CCN(C)CC3)c3ccncc3n2)CC1,-2%,0.41
CCc1cccc(N2CCC(Nc3cc(C)nc(-c4ccncc4)n3)CC2)c1,-2%,0.36
O=C(Cc1ccc(N2CCC(N3CCC([C@H](O)c4ccccc4)CC3)CC2)cc1)N1CCCC1,-1%,0.19
O=C(CO)Nc1cccc(Nc2ncnc3cc(F)c(F)cc23)c1,2%,-0.52
Clc1ccc2[nH]c3c(c2c1)CCCC3NC1CCN(C2CCOC2)CC1 (stereo unspecified),83%,-16.55
CN(CC(=O)N1CCc2c(c(C(N)=O)nn2C)C1)Cc1ccccc1F,-12%,2.08
CN(C)[C@H]1CCN(C(=O)c2cccc(-c3[nH]cnc3-c3ccccc3)c2)C1,-11%,1.86
CCn1cc(-c2ccc(C(=O)N3CCC[C@H](CN4CCOCC4)C3)cc2)cn1,-11%,2
CC(C)COc1cncc(NCc2ccccc2-c2cnn(C)c2)n1,-2%,0.36
Oc1cccc([C@@H]2CN(Cc3cnns3)CCO2)c1,1%,-0.12
c1cncc(-c2cccc(CN(c3ncnc4nc[nH]c34)C3CC3)c2)c1,-2%,0.35

Structure (SMILES),% Inhibition,Z score
CN(Cc1cc2cc(F)ccc2[nH]1)C(=O)[C@@H]1CC2(CCNCC2)CN1,1%,-0.17
COc1cc(NC(=O)N2CCOC[C@@H](CO)C2)cc(-n2nnnc2C)c1,-3%,0.58
Nc1nc(-c2c[nH]c3ncc(Br)cc23)cs1,-3%,0.56
O=C(NC1CC1)[C@H]1CCCN(C2CCN(c3ncc(F)cn3)CC2)C1,2%,-0.41
C[C@H]1CCCN(CCNC(=O)c2ccc(-c3ccc4c(=O)[nH]ccc4c3)cc2)C1,67%,-11.64
CC[C@@H]1C[C@H]1NS(=O)(=O)c1cnn2ncccc12,-4%,0.73
COc1cccc(-c2cccc(CN3CCC4(O)CCNCC4C3)c2)c1 (stereo unspecified),22%,-3.8
Fc1ccc(OCCN2CCC(Nc3cc(-n4ccnc4)ncn3)CC2)cc1,6%,-0.97
CCc1cc(N2CCN(C(=O)NC3CCN(C4CCCC4)CC3)CC2)ncn1,-4%,0.56
CCN1CCC[C@@H]1CNC(=O)CCC1CCN(C(=O)c2ccc[nH]2)CC1,8%,-1.39
Cc1nc(Nc2cnn(CC(=O)NC3CCCC3)c2)c2cc[nH]c2n1,-4%,0.84
CCc1nc(N)nc(NCCCn2cnnc2)c1C,-4%,0.95
c1cc(NCc2ccc3ncccc3c2)cc(N2CCN(CC3CC3)CC2)c1,1%,-0.18
Cc1csc2ncnc(NCc3cccc(-n4cncn4)c3)c12,-14%,2.54
NC(=O)c1cc(-c2csc(Nc3ncnc4ccccc34)n2)c[nH]1,0%,-0.01
COc1ccc2oc(C(=O)Nc3ccc(Oc4cccc5[nH]ccc45)nc3)c(C)c2c1,0%,-0.05
CCc1ccc(Nc2nc(C(=O)NCCc3c[nH]cn3)nc3ccccc23)cc1,7%,-1.15
Cc1ccnc(NCCNc2nccc(C(C)C)n2)c1,1%,-0.2
COCCN(CC1CCN(Cc2ccccc2F)CC1)C(=O)c1ccnc2ccc(C)cc12,-4%,0.66
COc1ccc2nc(NC3CCN(C)CC3)c(C)nc2c1,-6%,0.9
Cn1cc([C@@H](Nc2nc3c(c(=O)[nH]c(=O)n3C)n2C)C(C)(C)C)cn1,-9%,1.38

Structure (SMILES),% Inhibition,Z score
Cn1cc(-c2ccc3c(c2)NC(=O)CN2CCN(C(=O)NC4CCCC4)C[C@H]2CO3)cn1,-4%,0.56
O=C(NC1CCOC1)OCC1CCCCN1CCN1CCCCC1 (stereo unspecified),2%,-0.4
CC(C)c1csc(NC(=O)N2C[C@@H]3CCC[C@@]3(C(=O)O)C2)n1,-9%,1.54
c1ccc(-c2nc3c(c(NC4CCOCC4)n2)CCNCC3)cc1,3%,-0.49
Cc1cc(N[C@@H](C)C2CCN(C)CC2)nc(N(C)C)n1,5%,-1.08
COc1cc2nc(-c3ccc([C@H](C)N4CCCC4)cc3)nc(N)c2cc1OC,12%,-1.81
Cc1cccc(NC2CCN(c3ncnc4nc(N)ccc34)CC2)n1,-5%,0.79
CCN1CCN(c2ccc(F)cc2C(C)NCC2CCCOC2)CC1 (stereo unspecified),3%,-0.68
Cc1nnc(Cn2nc(C)sc2=O)s1,8%,-1.42
c1cncc([C@H](CNC2CCN(Cc3ccco3)CC2)N2CCCCC2)c1,2%,-0.39
CC(C)c1cc(CNc2ncnc3sccc23)on1,-2%,0.39
CC(C)(O)C#Cc1ccc(CN(CC2CCN(C3CCCC3)CC2)C[C@H]2CCCO2)cc1,-11%,1.92
c1cn(CCOc2ccc(CN3CCCC[C@@H]3CN3CCCC3)cc2)cn1,12%,-2.07
FC(F)(F)c1nc(Nc2cccc(Cl)c2)sc1-c1ccccc1,-16%,2.73
N#Cc1ccc(N2CCC[C@H](N3CCN(CCN4CCCOCC4)CC3)C2=O)cc1,-12%,2.09
CN1CCC(CN2CCN(Cc3c[nH]nc3-c3cccc(F)c3)CC2)CC1,18%,-3.15
CCOC(=O)c1nn(C)cc1CN1CCC[C@@H]1C(=O)OC(C)(C)C,13%,-2.84
Fc1cnc(NC2CCN(C[C@H]3CCOC3)CC2)nc1,6%,-0.91
CCn1cc(O[C@@H]2CN(c3ncnc4[nH]ccc34)C[C@H]2O)cn1,-3%,0.4
O[C@@H](CN(c1ccccc1)c1ccccc1)Cn1cnc(-c2ccccc2)c1-c1ccccc1,8%,-1.68
CCc1nc(NCc2cc3ccc(F)cc3[nH]c2=O)c2cnn(C)c2n1,-5%,0.81

Structure (SMILES),% Inhibition,Z score
Fc1ccc2oc(N[C@H]3CCN(CCN4CCOCC4)C3)nc2c1,-7%,1.01
CS(=O)(=O)N1CCc2c(ccc(C(=O)O)c2N)C1,-2%,0.47
Fc1cnccc1NCC[C@H]1CCCCN1Cc1ccccc1,-14%,2.48
COc1ccc2c(C(=O)NCCc3noc(C4CCC4)n3)cc(C)nc2c1,-6%,1.03
Cc1c(CNC2CCN(Cc3cccs3)CC2)[nH]c2ccccc12,2%,-0.35
O=C(CC1CCCCC1)N(CCCN1CCCC1)[C@H]1CCCNC1,6%,-0.99
Cc1cc(N[C@H]2CCCN(C)C2)nc2ccc(F)cc12,5%,-0.98
COc1cccc2ccc(N[C@H]3CCCN(C4Cc5ccccc5C4)C3)nc12,0%,-0.02
COc1ccccc1COc1cc(NC(=O)[C@H]2CCCN(c3cc(-n4ccnc4)ncn3)C2)ncn1,-15%,2.56
CC(=O)N1CCC(CNc2cc(Nc3ccccc3)nc(C)n2)CC1,0%,0.04
COc1cccc2[nH]cc(CC(=O)Nc3cc(-c4cccnc4)n[nH]3)c12,1%,-0.21
C#CCN1CCC(NCCN2CC[C@H](c3ccccc3)C2)CC1,-3%,0.55
CCN(C(=O)c1cncc2ccccc12)[C@H]1CCOC(C)(C)C1,-12%,2.6
CC(C)Oc1ccc(C(=O)N[C@H](Cc2c[nH]cn2)C(=O)O)cn1,-9%,1.49
CCN(C)c1cc(N2CCC3(CC2)OCCc2c3[nH]c3ccccc23)ncn1,4%,-0.65
Nc1nc(NC[C@@H](c2ccccc2)N2CCCCCC2)c2[nH]cnc2n1,-9%,2
O=C(Cc1c[nH]c2ccccc12)Nc1ccc(Nc2ccc(-n3cccn3)nn2)cc1,8%,-1.32
O=C(N1CCn2ncnc2C1)C1(c2cccc(Br)c2)CCCCC1,-4%,0.63
CN1CCN(c2ccnc(-c3noc([C@]4(C)CC=CCC4)n3)c2)CC1,0%,0.06
Cc1ccnc(OC[C@H]2CC(=O)N(CC3CCN(CCCc4ccccc4)CC3)C2)c1,5%,-0.87
